± gives the standard deviation. The list shows a part of the results, in another mix than the full data.
Each sequence was assayed on MIWI (PIWIL1) piRISC loaded with piRNA #1 (30 nt) (assay: pre-steady-state target cleavage rate (min^-1); MIWI and MILI are mouse PIWI proteins and EfPiwi is from a freshwater sponge; tags in brackets are library labels; higher = faster piRNA-guided slicing of the target). Details: guide: piRNA #1 5'p-UGAGGUAGUAGGUUGUAUAGUAUCCAGAGG; auxiliary factor: 500 nM mouse GTSF1.
How it was run: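 In HEPES–potassium acetate buffer at 33 °C, […] transcribed, DNA-blocked target RNA library was mixed with 1 nM active affinity-purified piRISC carrying one synthetic guide, with or without 500 nM GTSF1 partner protein, for 0–8 or 0–960 min. Uncleaved targets were sequenced and normalised to depth and to weakly complementary targets; three trials were pooled and k3 was capped at 0.0001 min^-1. The pre-steady-state cleavage rate followed from a burst-and-steady-state fit.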
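Further: 1 nM active piRISC with 0.1 nM target library at 33 °C single turnover.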

Which “pre-steady-state target cleavage rate” value does the source give for GGACUGGAUACUAAUCAACCUACUACCUCA here?
Its value is 1.53 ± 0.15.

Which “pre-steady-state target cleavage rate” value does the source give for GGAGAGGAUACUUUACAAGCUACUACCUCA here?
Its value is 0.429 ± 0.033.

For GGUCUGGAUACUAUACAACAUACUACCUCA, which “pre-steady-state target cleavage rate” value is on record?
The value was 1.24 ± 0.07.

With GGAGUGGAUACUAUACAAGGAACUACCUCA as the sequence, how does the “pre-steady-state target cleavage rate” value read?
Its value is 0.0048 ± 0.0021.

Which “pre-steady-state target cleavage rate” value does the source give for GGAGAGGAUACUAUACAACCUUCUUCCUCA here?
The value was 0.0139 ± 0.0045.

How did the “pre-steady-state target cleavage rate” value turn out when GGAGUGGAGUACUAUACAACCUACUACCUCA was run?
Its value is 1.43 ± 0.12.

With GGAGACCUUACUAUACAACCUACUACACUCA as the sequence, how does the “pre-steady-state target cleavage rate” value read?
The value was 0.735 ± 0.055.

For CCUCUGGAUACUAUCACAACCUACUACCUCA, which “pre-steady-state target cleavage rate” value is on record?
The value was 1.81 ± 0.14.

How did the “pre-steady-state target cleavage rate” value turn out when GGUCUGGAUACUAUACAACCUACUACGACA was run?
Its value is 0.34 ± 0.045.

Which “pre-steady-state target cleavage rate” value does the source give for “GGAGUGGAUACUAUACAACCUACUACCUCA [g2:g26:cont:t1A]” here?
The value was 1.71 ± 0.088.

For GCUCUGGAUACUAAACAACCUUCUACCUCA, which “pre-steady-state target cleavage rate” value is on record?
Its value is 0.565 ± 0.032.

“GGAGACCUAUGAUUACAACCAUGAUGGAGA [g11:g17:cont:t1A]” was tested. Which “pre-steady-state target cleavage rate” value did it give?
The value was less than 0.0001.

With GGUCUCGAUACUAUACAUCCUACUACCUCA as the sequence, how does the “pre-steady-state target cleavage rate” value read?
Its value is 1.72 ± 0.093.

GGAGACGAAACUAUACAACCUACUACCUGA was tested. Which “pre-steady-state target cleavage rate” value did it give?
The value was 0.708 ± 0.12.

How did the “pre-steady-state target cleavage rate” value turn out when GGAGAGGAUACAAUUCAACCUACUACCUCA was run?
Its value is 1.06 ± 0.07.

For GGAGACGAUUCUAUACAACCUACUACCUGA, which “pre-steady-state target cleavage rate” value is on record?
Its value is 0.741 ± 0.088.

For GGUCUGCAUACUAUACAACCUUCUACCUCA, which “pre-steady-state target cleavage rate” value is on record?
The value was 0.639 ± 0.03.

For GGACAGGAUACUAUAGAACCUACUACCUCA, which “pre-steady-state target cleavage rate” value is on record?
Its value is 1.45 ± 0.083.

CCUCUGGAUACUAUACAACCGACUACCUCA was tested. Which “pre-steady-state target cleavage rate” value did it give?
Its value is 0.0148 ± 0.0039.

For CCUGUGGAUACUAUUCAACCUACUACCUCA, which “pre-steady-state target cleavage rate” value is on record?
Its value is 1.81 ± 0.1.

For CGUCUGGAUACUAUACAACCUUCUACCUCA, which “pre-steady-state target cleavage rate” value is on record?
The value was 0.477 ± 0.033.

GGAGACCUUACUAUACAACCUACUAGCUGA was tested. Which “pre-steady-state target cleavage rate” value did it give?
The value was 0.142 ± 0.031.

CCUCUGGAAACUAUACAACCUAGUACCUCA was tested. Which “pre-steady-state target cleavage rate” value did it give?
Its value is 0.372 ± 0.053.

Which “pre-steady-state target cleavage rate” value does the source give for GGAGAGGAUACUAUACCACCUACUACCUCA here?
The value was 1.26 ± 0.052.

With GGAGACGAUACUAUACAAGCUACUAGCUCA as the sequence, how does the “pre-steady-state target cleavage rate” value read?
Its value is 0.343 ± 0.053.

How did the “pre-steady-state target cleavage rate” value turn out when GGAGACGAUACUUUACAACCUACUACGUCA was run?
Its value is 0.497 ± 0.051.

Which “pre-steady-state target cleavage rate” value does the source give for GGACUGGAUACUAUACAACCUACUACAUCA here?
The value was 0.33 ± 0.042.

How did the “pre-steady-state target cleavage rate” value turn out when GGAGAGGUUACUAUACAACCUACUACCACA was run?
Its value is 0.352 ± 0.023.

For GGAGACCUAUCUUUACAACCUACUACCUGA, which “pre-steady-state target cleavage rate” value is on record?
Its value is 0.101 ± 0.025.

How did the “pre-steady-state target cleavage rate” value turn out when CCUCUGGAUACUAUACAACCGUACUACCUCA was run?
The value was 0.00658 ± 0.004.

With GGACUGGAAACUAUACAACCUACUAGCUCA as the sequence, how does the “pre-steady-state target cleavage rate” value read?
Its value is 0.0121 ± 0.0032.

With GGAGAGGAUACUAUACACCCUACUACCUCA as the sequence, how does the “pre-steady-state target cleavage rate” value read?
The value was 1.4 ± 0.068.

For GGAGAGGUUACUAUACUACCUACUACCUCA, which “pre-steady-state target cleavage rate” value is on record?
Its value is 0.776 ± 0.048.

With GGAGACCUAACUAUACAACGUACAACCUCA as the sequence, how does the “pre-steady-state target cleavage rate” value read?
Its value is 0.00727 ± 0.0033.

Which “pre-steady-state target cleavage rate” value does the source give for GGAGACCAUAGUAUACAACCUACAACCUCA here?
The value was 0.361 ± 0.059.

GGAGACCUAACUACUACAACCUACUACCUCA was tested. Which “pre-steady-state target cleavage rate” value did it give?
Its value is 0.205 ± 0.042.

GCUCUGGAUACAAUACAACCUUCUACCUCA was tested. Which “pre-steady-state target cleavage rate” value did it give?
The value was 0.619 ± 0.036.

GGAGACCUAUCUAUACAACGCUACUACCUCA was tested. Which “pre-steady-state target cleavage rate” value did it give?
The value was less than 0.0001.

Which “pre-steady-state target cleavage rate” value does the source give for GGAGACCAUACUAUACAACCAACUAGCUCA here?
Its value is 0.0517 ± 0.011.

How did the “pre-steady-state target cleavage rate” value turn out when CCUCUGGAUACUCUACAACCUACUACCUCA was run?
The value was 1.84 ± 0.099.
